The experiment can be described thus: qHTS Assay for Lipid Storage Modulators (AID 1519). Conditions: Drosophila S3 cells, BODIPY lipid droplet/cell ratio, laser cytometry, cells loaded with oleic acid. Summed up:
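Cells seeded at 5,000 per well were treated with compounds over a concentration series and loaded with oleic acid (400 uM, as added). Lipid droplet fluorescence (488 nm excitation, 500-530 nm channel) was read by laser-scanning cytometry and normalized to 20 uM Triacsin C.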

Setting [1] is: measured here: cell count channel max response.
The mark [2] stands for this setting: measured here: cell number channel AC50.
The mark [3] stands for this setting: measured here: lipid (BODIPY) channel AC50.
Where [4] appears, read: measured here: lipid channel max response.

Where “and” joins values, the source holds several entries; their conditions need not be identical. Equal values may be shown once. The list shows a part of the results. Shown are side measurements of this screen, not its main read-out; they come without a call. The list favours compounds with an active or inconclusive main result. Words in brackets tell the shape of the fitted curve; partial curves, single points and poor fits give uncertain potencies.
Tags tell the direction and shape of the fitted curve.

For `COc1ccccc1CCn1c(=O)c(-c2ccc(Cl)cc2)nc2cncnc21`, the max response stood at 23.1% under setting [1] and 33.2% under setting [4]. For the same molecule, the AC50 is, setting by setting: under setting [2], 1.58 µM [rising, full curve]; under setting [3], 1.58 µM [rising, full curve, poor fit].
For the molecule `CC(=O)OCC[N+](C)(C)C`, the max response was 42.5% under setting [1] and 55.4% under setting [4]. Besides, the AC50 runs as follows: under setting [2], 22.4 µM [rising, partial curve, poor fit]; under setting [3], 31.6 µM [rising, partial curve, poor fit].
Consider `CCNc1ncc2nc(-c3ccc(OC)cc3)c(=O)n(CCC#N)c2n1`, for which the max response came out at 38.2% under setting [1] and 44.6% under setting [4]. Also, the AC50 is, setting by setting: under setting [2], 3.16 µM [rising, partial curve, poor fit]; under setting [3], 1.26 µM [rising, full curve, poor fit].
Turning to `O=c1[nH]c2cc([N+](=O)[O-])c([N+](=O)[O-])cc2[nH]c1=O`, the max response reads like this: under setting [1], 42.1%; under setting [4], 43%. The AC50 under setting [2] was 8.91 µM [falling, full curve, poor fit] and the AC50 under setting [3] is 7.94 µM [falling, full curve, poor fit].
As to `CCNc1ncc2ncc(=O)n(Cc3cccc(OC)c3)c2n1`, the max response runs as follows: under setting [1], 10.7%; under setting [4], 12.2%. In addition, the AC50 runs as follows: under setting [2], 1.26 µM [rising, partial curve]; under setting [3], 1.41 µM [rising, partial curve].
As to `C1CCc2nnnn2CC1`, the max response by setting is: under setting [1], 21.3%; under setting [4], 21.5%. Also, the AC50 reads like this: under setting [2], 11.2 µM [falling, partial curve, poor fit]; under setting [3], 11.2 µM [falling, partial curve, poor fit].
Turning to `COc1ccccc1CCn1c(=O)c(C)nc2cncnc21`, the max response is, setting by setting: under setting [1], 36.6%; under setting [4], 51.9%. In addition, the AC50 reads like this: under setting [2], 0.0794 µM [rising, partial curve, poor fit]; under setting [3], 0.0398 µM [rising, full curve].
As for `COc1ccc(Oc2ncc3nc(-c4cccc(C#N)c4)c(=O)n(C)c3n2)cc1`, the max response by setting is: under setting [1], 11.6%; under setting [4], 15.4%. Also, the AC50 is 3.16 µM [rising, partial curve, poor fit] under setting [2] and 2.82 µM [rising, partial curve, poor fit] under setting [3].
`O=C(O)C1CN(CCCP(=O)(O)O)CCN1` (stereo unspecified): the max response is -55% under setting [1] and -54.9% under setting [4]. Moreover, the AC50 is, setting by setting: under setting [2], 15.8 µM [falling, partial curve, poor fit]; under setting [3], 25.1 µM [falling, partial curve, poor fit].
As for `Cc1ccccc1-c1nc(N(C)C)c2ccccc2n1`, the max response is, setting by setting: under setting [1], 25.4%; under setting [4], 29.1%. Besides, the AC50 was 1.12 µM [rising, full curve, poor fit] under setting [2] and 1.26 µM [rising, full curve, poor fit] under setting [3].
Turning to `COc1ccc(-c2nc3cnc(OCc4ccccc4)nc3n(CCC#N)c2=O)cc1`, the max response by setting is: under setting [1], 25.5%; under setting [4], 28.3%. The AC50 reads like this: under setting [2], 3.55 µM [rising, full curve, poor fit]; under setting [3], 3.55 µM [rising, single point].
Regarding `CN(CCc1ccc(Cl)c(Cl)c1)CCN1CCCCCC1`, the max response was 40.1% under setting [1] and 49.6% under setting [4]. In addition, the AC50 under setting [2] was 31.6 µM [rising, single point] and the half-maximal activity concentration (AC50) under setting [3] was 31.6 µM [rising, single point].
As to `CCN1CCC[C@H]1CNC(=O)c1c(OC)ccc(Br)c1OC`, the max response runs as follows: under setting [1], 30.5%; under setting [4], 31.3%. Further, the AC50 is 31.6 µM [rising, single point] under setting [2] and 31.6 µM [rising, single point] under setting [3].
As to `O=c1cnc2cnc(OCc3ccccc3)nc2n1CCc1ccccc1`, the max response was 17.8% under setting [1] and 27.5% under setting [4]. Besides, the AC50 runs as follows: under setting [2], 3.55 µM [rising, partial curve, poor fit]; under setting [3], 5.62 µM [rising, partial curve, poor fit].
For `COc1cccc(-c2cc(NCc3cnc(C)cn3)ncn2)c1`, the max response runs as follows: under setting [1], 32.3%; under setting [4], 34.6%. Also, the concentration at half-maximal activity (AC50) by setting is: under setting [2], 3.55 µM [rising, partial curve, poor fit]; under setting [3], 3.55 µM [rising, partial curve].
`c1cn(-c2ncnc3ccc(-c4ccoc4)cc23)cn1`: the max response runs as follows: under setting [1], 7.62%; under setting [4], 10.6%. Also, the half-maximal activity concentration (AC50) is, setting by setting: under setting [2], 1.12 µM [rising, full curve, poor fit]; under setting [3], 1.12 µM [rising, full curve, poor fit].
On to `COC(=O)N1CCC2(CCCN(c3ncccn3)C2)CC1`, for which the max response under setting [1] was 32.4% and the max response under setting [4] was found to be 45.2%. Moreover, the AC50 is 0.0224 µM [rising, full curve, poor fit] under setting [2] and 0.0398 µM [rising, full curve] under setting [3].
`O=c1cc(-c2ccccc2)oc2cccc(O)c12`: the max response reads like this: under setting [1], 111%; under setting [4], 142%. Also, the AC50 by setting is: under setting [2], 15.8 µM [rising, partial curve]; under setting [3], 15.8 µM [rising, partial curve].
Take `COc1cccc(Cn2c(=O)c(-c3cccc(Cl)c3)nc3cncnc32)c1`: the max response is, setting by setting: under setting [1], 19.7%; under setting [4], 34.1%. Further, the concentration at half-maximal activity (AC50) under setting [2] is 0.562 µM [rising, full curve, poor fit] and the AC50 under setting [3] is 0.562 µM [rising, full curve, poor fit].
For the molecule `COc1ccc2[nH]c(C(=O)c3ccccc3)cc2c1`, the max response under setting [1] is 98.5% and the max response under setting [4] was determined as 114%. Moreover, the AC50 under setting [2] was 2.51 µM [rising, full curve] and the AC50 under setting [3] is 1.78 µM [rising, full curve].
In the case of `CN(C)C(=O)c1ccc(-c2cncnc2NCc2cccnc2)cc1`, the max response reads like this: under setting [1], 36.8%; under setting [4], 47.4%. Besides, the concentration at half-maximal activity (AC50) runs as follows: under setting [2], 3.16 µM [rising, full curve]; under setting [3], 3.55 µM [rising, full curve].
Regarding `O=C(/C=C\c1ccc(O)c(O)c1)O[C@@H](Cc1ccc(O)c(O)c1)C(=O)O`, the max response by setting is: under setting [1], -2.96%; under setting [4], 6.02%. In addition, the AC50 under setting [2] is 15.8 µM [rising, single point] and the AC50 under setting [3] was 15.8 µM [rising, partial curve, poor fit].
On to `CCOC(OCC)P(=O)(O)CCCNCc1ccc(Cl)c(Cl)c1`, for which the max response under setting [1] was found to be 48.5% and the max response under setting [4] was found to be 56.5%. The AC50 under setting [2] is 35.5 µM [rising, single point] and the AC50 under setting [3] was 31.6 µM [rising, partial curve].
Consider `CS(=O)(=O)N1CCC2(CCCN(Cc3cc(C(F)(F)F)cc(C(F)(F)F)c3)C2)CC1`, for which the max response under setting [1] came out at 16.9% and the max response under setting [4] is -5.41%. Further, the half-maximal activity concentration (AC50) is 5.01 µM [rising, single point] under setting [2] and 3.98 µM [rising, single point] under setting [3].
`CC(=O)N1CCC[C@@]2(CCN(c3ccccc3)C2)C1`: the max response by setting is: under setting [1], 27.1%; under setting [4], 11.7%. Moreover, the AC50 runs as follows: under setting [2], 0.141 µM [rising, full curve]; under setting [3], 0.1 µM [rising, full curve].
`COc1cc(=O)n(C)c2c(OCC(O)C(C)(C)O)cccc12` (stereo unspecified): the max response was 63.6% and 78.6% under setting [1]; 80.5% and 81.4% under setting [4]. Also, the AC50 runs as follows: under setting [2], 15.8 µM [rising, partial curve, poor fit]; under setting [3], 28.2 µM [rising, partial curve, poor fit].
Turning to `CO/N=C(\C(=O)N[C@@H]1C(=O)N2C(C(=O)O)=C(CSc3nc(=O)c(O)nn3C)CSC12)c1csc(N)n1` (stereo partly specified), the max response runs as follows: under setting [1], 54.1%; under setting [4], 55.4%. Further, the AC50 was 39.8 µM [rising, single point] under setting [2] and 39.8 µM [rising, single point] under setting [3].
Turning to `CNc1nc(-c2ccc(C(=O)N(C)C)cc2)nc2ccccc12`, the max response worked out at 28.7% under setting [1] and 35% under setting [4]. In addition, the AC50 under setting [2] was 0.398 µM [rising, full curve, poor fit] and the AC50 under setting [3] was 0.355 µM [rising, full curve, poor fit].
As to `COc1cc(/C=C/C(=O)N2CCC=CC2=O)cc(OC)c1OC`, the max response under setting [1] was -31.6% and the max response under setting [4] is -82.6%. In addition, the concentration at half-maximal activity (AC50) by setting is: under setting [2], 22.4 µM [falling, partial curve, poor fit]; under setting [3], 17.8 µM [falling, partial curve].
Take `CN(C)c1ccc(-c2nccc(Nc3ccc(F)cc3)n2)cc1`: the max response under setting [1] was -5.33% and the max response under setting [4] was -1.51%. For the same molecule, the AC50 by setting is: under setting [2], 1.41 µM [rising, full curve]; under setting [3], 1.26 µM [rising, full curve].
In the case of `Cc1noc(C)c1-c1nccc(NCCN2CCOCC2)n1`, the max response runs as follows: under setting [1], 34.2%; under setting [4], 38.9%. The AC50 reads like this: under setting [2], 12.6 µM [rising, partial curve]; under setting [3], 11.2 µM [rising, partial curve, poor fit].
In the case of `Cc1noc(C)c1-c1nccc(N(C)C)n1`, the max response is, setting by setting: under setting [1], 50.3%; under setting [4], 53.8%. Further, the AC50 is 10 µM [rising, partial curve] under setting [2] and 8.91 µM [rising, partial curve] under setting [3].
As for `Cc1nc2cnc(OCc3ccccc3)nc2n(CCC#N)c1=O`, the max response under setting [1] turned out to be 19.4% and the max response under setting [4] was 27.6%. Also, the AC50 was 0.0224 µM [rising, full curve, poor fit] under setting [2] and 0.0224 µM [rising, full curve] under setting [3].
With `COc1ccc(-c2oc3ccccc3c(=O)c2O)cc1`, the max response by setting is: under setting [1], 45.5%; under setting [4], 64.4%. Also, the AC50 by setting is: under setting [2], 15.8 µM [rising, partial curve, poor fit]; under setting [3], 17.8 µM [rising, partial curve, poor fit].
Regarding `COC(=O)N1CCC2(CCCN(Cc3ccccc3)C2)CC1`, the max response was 32.7% under setting [1] and 44.8% under setting [4]. Moreover, the AC50 was 22.4 µM [rising, single point] under setting [2] and 10 µM [rising, partial curve, poor fit] under setting [3].
In the case of `COc1ccc(C(=O)N2CCC3(CCCN(C(=O)Nc4cccc(F)c4)C3)CC2)cc1`, the max response by setting is: under setting [1], 2.67%; under setting [4], 8.18%. Besides, the AC50 by setting is: under setting [2], 0.0447 µM [rising, full curve, poor fit]; under setting [3], 0.0355 µM [rising, full curve, poor fit].
For `Cc1nc2cnc(N(C)C)nc2n(-c2ccccc2)c1=O`, the max response runs as follows: under setting [1], 36.9%; under setting [4], 45.2%. Further, the AC50 is 6.31 µM [rising, partial curve, poor fit] under setting [2] and 3.98 µM [rising, partial curve, poor fit] under setting [3].
On to `COC(=O)[C@@H]1[C@@H]2C[C@H]3c4[nH]c5ccccc5c4CCN3C[C@@H]2CC[C@@H]1O`, for which the max response under setting [1] was 66.5% and 25%; the max response under setting [4] was 82.7% and 33.8%. The AC50 by setting is: under setting [2], 35.5 µM [rising, partial curve, poor fit] and 8.91 µM [rising, full curve, poor fit]; under setting [3], 12.6 µM [rising, full curve, poor fit].
Consider `CCNc1ncc2nc(-c3cn(C)c4ccccc34)c(=O)n(C[C@H]3CCCO3)c2n1`, for which the max response worked out at 23.1% under setting [1] and 32.7% under setting [4]. Further, the AC50 by setting is: under setting [2], 0.158 µM [rising, full curve, poor fit]; under setting [3], 0.2 µM [rising, full curve].

(Values after PubChem BioAssay (NCATS).)
